# Source: the supplement of paper PMC10126150
# Values marked as one replicate rest on one cluster of the flow cell; about a third of the high ones do not repeat.
# Tested on: ATP
# Test: switch fluorescence ratio, 500 uM ATP over buffer (Cy3 cluster intensity, sum of 5 cycles each) (fold (ratio)); higher = stronger signal-on switching upon ATP binding; sequences stand for … in TCGTCGGCAGCGTCAGATGTGTATAAGAGACAGTTTTTTTTTTTTTTTTTTTTTTTTT…TC
# Settings: aptamer strand: ATP DNA aptamer (quencher-CACCTGGGGGAGTATTGCGGAGGAAGG + anchor), 100 nM annealed; ATP concentration: 500 uM; one replicate
# Summary of the method: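 Cy3-labelled switching-strand clusters on a modified Illumina MiSeq flow-cell were annealed to 100 nM quencher-labelled ATP aptamer, imaged in selection buffer, then imaged after 15 min with 500 uM ATP at 22 °C. Five buffer/ATP cycles ran, with NaOH stripping and re-annealing between them. The fluorescence ratio is summed target-cycle over summed buffer-cycle Cy3 intensity per cluster, averaged per switch-domain sequence. Clusters outside 100-1000 RFU were excluded.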
# 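Further: ATP exposure 15 min at 22 °C before imaging.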
row,Sequence,switch fluorescence ratio
1,CGCACGAGTA,1
2,CGCACGATCT,1.07
3,CGCACGGATA,1.1
4,CGCACGTCGT,0.998
5,CGCACTTTTT,1.09
6,CGCAGCGCTT,1.05
7,CGCAGCTCGT,1.24
8,CGCAGTACCA,1.84
9,CGCAGTATTT,1.1
10,CGCAGTGCTA,2.44
11,CGCAGTGGA,0.985
12,CGCATAGTGA,1.02
13,CGCATGGCTG,1.06
14,CGCATTTTCC,2.73
15,CGCCACGTAA,1.23
16,CGCCAGGTAC,2.62
17,CGCCAGGTTT,1.39
18,CGCCATGGCA,1.04
19,CGCCATTAGA,1.02
20,CGCCCAACT,1.1
21,CGCCCAACTA,1.15
22,CGCCCAATCG,1.45
23,CGCCCAATTT,0.984
24,CGCCCATCAG,1.02
25,CGCCCCAGAG,2.82
26,CGCCCCGGGG,0.988

row,Sequence,switch fluorescence ratio
1,CGCCCGGATA,1.06
2,CGCCGAATAT,1.55
3,CGCCGAGCCC,1.18
4,CGCCGATATG,1.06
5,CGCCGGGCAA,1.19
6,CGCCGGGTAT,1.03
7,CGCCGGTATG,1.01
8,CGCCGTACGC,1.07
9,CGCCGTAGA,1.06
10,CGCCGTAGAT,1.05
11,CGCCGTATGT,1.05
12,CGCCTATACT,4.28
13,CGCCTATGTA,1
14,CGCCTGCTGC,1.16
15,CGCCTGGG,1.01
16,CGCCTTGCGA,1
17,CGCGAAGACA,1.05
18,CGCGACGCCG,1.05
19,CGCGATTCCA,1.12
20,CGCGCAACGC,1.97
21,CGCGCACCGG,0.991
22,CGCGCAGATA,1.07
23,CGCGCAGGAG,1.24
24,CGCGCCATGG,1
25,CGCGCGAAAC,1.01
26,CGCGCGATGT,0.984

row,Sequence,switch fluorescence ratio
1,CGCGCGGCAA,1.37
2,CGCGCTAGTA,1.02
3,CGCGGAGAAG,1.02
4,CGCGGAGACC,1.05
5,CGCGGCACAC,4.82
6,CGCGGCCGGT,1.02
7,CGCGGCTGCT,0.992
8,CGCGGGCAGA,1.04
9,CGCGGGCGTC,1
10,CGCGGGGTGA,1.05
11,CGCGGTCAGG,1.03
12,CGCGTACTCG,1.89
13,CGCGTCCCG,1.03
14,CGCGTGCTCC,2.18
15,CGCGTGTGTA,1
16,CGCTAACTTT,1.1
17,CGCTAATCAT,1.02
18,CGCTACCTAT,1.07
19,CGCTACGCCC,2.48
20,CGCTACTCAC,4.28
21,CGCTAGTGTC,1.1
22,CGCTATGGAC,2.08
23,CGCTATTAGG,1.04
24,CGCTATTCGA,1.14
25,CGCTCACTCA,1.79
26,CGCTCAGCTC,1.19

row,Sequence,switch fluorescence ratio
1,CGCTCATGGT,1.03
2,CGCTCCCGTA,1
3,CGCTCGAGGC,1.06
4,CGCTCTCGAA,0.94
5,CGCTGGCGGG,1.03
6,CGCTGTAG,1.07
7,CGCTGTCCGT,1.06
8,CGCTTAATTC,1.82
9,CGCTTATGTA,0.993
10,CGCTTGAAGC,1.03
11,CGCTTGGCGG,1.07
12,CGCTTGGTCC,1.31
13,CGCTTGTCGG,1
14,CGCTTTTCAG,0.998
15,CGCTTTTTCG,1
16,CGGAAACGGA,1.03
17,CGGAAGAAGT,0.986
18,CGGAAGATGA,0.961
19,CGGAAGGGGT,1.01
20,CGGAAGGTGG,1.01
21,CGGAATTACT,1.33
22,CGGACACGGT,0.966
23,CGGACAGATT,1
24,CGGACCGCAG,1.24
25,CGGACCGGTC,1
26,CGGACGCCAA,2.78

row,Sequence,switch fluorescence ratio
1,CGGACGGCAT,1.45
2,CGGACGTCAG,0.97
3,CGGACTAGGC,1.05
4,CGGACTGGCA,1.03
5,CGGAGCACGG,2.65
6,CGGAGCGCTA,1.42
7,CGGAGCGGGC,1.28
8,CGGAGCTAAT,4.14
9,CGGAGGAGAT,1.04
10,CGGAGGATTG,0.987
11,CGGAGGCACA,1.65
12,CGGAGGCGAA,1.3
13,CGGAGGGAGC,1.02
14,CGGAGGTGGC,1.07
15,CGGAGTGCCT,1.01
16,CGGATTGGGC,0.932
17,CGGCAACAGG,1.27
18,CGGCACGCTG,1
19,CGGCAGACTC,2.84
20,CGGCATATTT,1.04
21,CGGCATCTGT,0.992
22,CGGCCACGA,1.01
23,CGGCCAGATT,0.997
24,CGGCCAGTTT,1.03
25,CGGCCCTAGA,1.02
26,CGGCCGCCTT,1.01

row,Sequence,switch fluorescence ratio
1,CGGCCGCTT,1.27
2,CGGCCTCTAC,1.33
3,CGGCGAAGTA,0.953
4,CGGCGGAGGT,0.976
5,CGGCGGGTTC,0.997
6,CGGCGTAGTA,1.02
7,CGGCGTTG,0.99
8,CGGCTACCGT,0.956
9,CGGCTCGCTC,1.06
10,CGGCTCGTTA,1.02
11,CGGCTCTCAA,1.11
12,CGGCTGCCGT,1.04
13,CGGCTGCTGG,1.04
14,CGGCTGGGTC,1.01
15,CGGCTTAAGA,0.975
16,CGGCTTTCCG,0.992
17,CGGGAAACAC,1.32
18,CGGGAACGAC,1.04
19,CGGGAGGCTT,1.02
20,CGGGATCCGT,1.02
21,CGGGCAATCG,1.28
22,CGGGCACACA,1.04
23,CGGGCAGGAA,1.01
